Test results from paper PMC6919601, “Identification of Plasmodium dipeptidyl aminopeptidase allosteric inhibitors by high throughput screening” (PLoS ONE, 2019).
Among all 110,000 compounds or so, about 230 (0.21%) showed an effect of 50% or more. This is one part of the list.

Target: DPAP1 (Plasmodium falciparum, UniProt Q8IIJ9)
Experiment: primary screen, percent inhibition; read by cleavage of a fluorogenic dipeptide substrate; higher = more effect of the substance
Parameters: species or system P. falciparum D10 trophozoite lysates; single well
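Also: 30 min substrate incubation versus DMSO and 10 µM JCP410 controls.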

Sequence of DPAP1 (Q8IIJ9 whole entry, looked up): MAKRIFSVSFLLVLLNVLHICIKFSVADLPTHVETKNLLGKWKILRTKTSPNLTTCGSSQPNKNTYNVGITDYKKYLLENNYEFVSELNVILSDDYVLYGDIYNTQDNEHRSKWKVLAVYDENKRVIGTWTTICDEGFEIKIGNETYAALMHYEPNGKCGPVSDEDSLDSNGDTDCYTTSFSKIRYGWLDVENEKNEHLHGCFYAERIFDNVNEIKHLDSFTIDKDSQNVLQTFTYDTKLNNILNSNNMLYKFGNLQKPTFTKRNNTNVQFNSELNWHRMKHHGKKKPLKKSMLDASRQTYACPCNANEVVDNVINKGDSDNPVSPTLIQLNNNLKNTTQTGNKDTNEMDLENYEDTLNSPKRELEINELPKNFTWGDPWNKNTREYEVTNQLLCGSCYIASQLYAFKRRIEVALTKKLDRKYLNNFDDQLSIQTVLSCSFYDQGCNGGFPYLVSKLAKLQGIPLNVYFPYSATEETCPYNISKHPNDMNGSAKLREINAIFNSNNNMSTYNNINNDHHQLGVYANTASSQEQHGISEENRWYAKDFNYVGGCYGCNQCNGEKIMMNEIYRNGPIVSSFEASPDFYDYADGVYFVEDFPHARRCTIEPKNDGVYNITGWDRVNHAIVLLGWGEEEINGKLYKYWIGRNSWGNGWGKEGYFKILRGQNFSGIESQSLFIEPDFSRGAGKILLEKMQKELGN

SMILES | % Inhibition @ 10 uM
Cc1ccc(CNC(=O)c2cc(S(=O)(=O)N3CCCCC3)c[nH]2)o1 | 1.46%
CCCCNc1nc2c(-c3cccc(C(F)(F)F)c3)nnn2c2ccccc12 | -6.52%
Cn1nc(-c2ccc(Cl)cc2)c2cc(C(=O)NCCCN3CCOCC3)sc21 | -4.96%
CCOC(=O)c1c(NC(=O)c2cccnc2)sc(C(=O)OC)c1C | -1.42%
COc1ccccc1CNC(=O)C1CCC(CNS(=O)(=O)c2cccs2)CC1 (stereo not shown) | -0.0508%
O=C(Cn1nnc2sc3c(c2c1=O)CCCC3)NC1CCCCC1 | 2.04%
Cc1ccc(CN(C(=O)c2sc3ccccc3c2Cl)C2CCS(=O)(=O)C2)o1 (stereo not shown) | -4.64%
Cc1ccccc1OC(C)C(=O)Nc1ccccc1 (stereo not shown) | -4.02%
COC(=O)c1nc2n(n1)C(c1ccccc1OC)C1=C(O)CCCC1=N2 (stereo not shown) | -3.6%
COc1cc(OC)cc(-c2nc3n(n2)C(c2cccnc2)C(C(N)=O)=C(C)N3)c1 (stereo not shown) | 1.96%
CCOc1ccc2nc(SCC(=O)N3CCN(C(=O)c4ccc(C)cc4)C3)sc2c1 | 6.49%
OC1=C2C(=Nc3ccccc3NC2c2cccc(O)c2)CC(c2cccs2)C1 (stereo not shown) | -6.92%
Cc1nc(O)nc(O)c1N1CCOCC1 | -2.12%
CCCSc1nnc(N2C(=O)CC(c3ccc(F)cc3)C3=C2CC(C)(C)CC3=O)s1 (stereo not shown) | -1.05%
Cc1nn(-c2ccccc2)c(-n2cccc2)c1C(=O)NCCCc1ccccc1 | -1.58%
CCOC(=O)N1CCN(C(=O)CN(C)S(=O)(=O)c2ccc(C)cc2)CC1 | 0.235%
Cc1noc(/C=C/N(C)C)c1S(=O)(=O)N(C)CC(=O)NC1CCCCC1 | 7.3%
O=c1c2c(nc(SCc3ccccc3)n1-c1ccccc1)-c1ccccc1CC21CCCC1 | -3.93%
O=C(c1ccc(Cn2cc(Br)cn2)cc1)N1N=C(C(F)F)CC1(O)C(F)F (stereo not shown) | -1.36%
O=C1c2[nH]nc(-c3ccccc3O)c2C(c2cccc(Oc3ccccc3)c2)N1CCCO (stereo not shown) | -3.12%
Cc1ccc(NC(=O)c2ccncc2)cc1Cl | 12.7%
COc1ccc2ccccc2c1C1NC(S)=NC(C)=C1C(=O)Nc1ccccc1 (stereo not shown) | -3.62%
O=C1NC(=O)C(=Cc2ccc(-c3ccc(Cl)c(Cl)c3)o2)C(=O)N1 | 4.08%
COc1ccc(/C=c2/[nH]c(=O)/c(=C\c3ccc(OC)cc3OC)[nH]c2=O)c(OC)c1 | 0.937%
CC(O)CNc1ncnc2c1cnn2C (stereo not shown) | 4.3%

SMILES | % Inhibition @ 10 uM
Cc1cccc(-c2nc(CS(=O)CC(=O)NCCN(C)C)c(C)o2)c1 (stereo not shown) | -4.71%
Cc1nnc(N2CCCC(C(=O)N3CCC4(CC3)OCCO4)C2)c2nn(-c3ccccc3)c(C)c12 (stereo not shown) | 0.882%
O=C(CCN1C(=O)c2ccccc2C1=O)Nc1ccc(NC(=O)c2ccco2)cc1 | -0.132%
CC1=CCC2C(=O)N(c3cccc(C(=O)NCc4ccccc4)c3)C(=O)C2C1 (stereo not shown) | -6.39%
COc1ccc([C@H]2NCC[C@@]3(O)CCCC[C@H]23)cc1O | 1.34%
CCN(Cc1ccccc1)Cc1ccccc1O | -4.14%
CCOC(=O)c1cnc2ccc(C)cc2c1O | -6.22%
Cc1cc(N2CCOCC2)c2c(N)cc(C)c(C)c2n1 | 1.82%
CC(C)CC(Nc1ncnc2c1oc1ccccc12)C(=O)O (stereo not shown) | -7.35%
CCOc1cc(S(=O)(=O)NCc2nc3ccccc3[nH]2)ccc1Cl | -0.403%
Cc1ccc(/C=c2/sc3nc(=O)c(Cc4ccc(F)cc4)nn3c2=O)o1 | -0.499%
CC1(C)N=C(N)NC(Nc2ccccc2Br)=N1 | 3.82%
COc1ccccc1C1CC(=O)NC(C)=C1C(=O)OCC(C)C (stereo not shown) | -6.91%
Cc1ccc(CNC(=O)C2CCCN(c3nnc(-n4cccc4)s3)C2)cc1 (stereo not shown) | -7.8%
CCn1cc(C(=O)NCc2cccnc2)c2cc(OC)c(OC)cc2c1=O | -4.86%
NC(=O)CSc1nnc(-c2cccs2)n1-c1ccccc1 | 2.12%
Cc1cc(C)c(N2CCC(=O)N2)c(C)c1 | 7.27%
O=C(CN1CCOCC1)c1csc2ccccc12 | -0.63%
CCc1ccc(OCC(=O)Nc2cccc(NC(=O)c3ccccc3)c2)cc1 | -3.98%
O=C1CN=C(c2cc([N+](=O)[O-])ccc2Cl)c2cc([N+](=O)[O-])ccc2N1 | -0.424%
Cc1ccsc1C(C#N)NC(=O)C(Cc1c(F)cccc1F)NC(=O)c1ccc(C(C)(C)C)cc1 (stereo not shown) | -4.72%
CC(=O)c1ccc(N2CCN(Cc3cccs3)CC2)cc1 | -3.8%
CN(C)CCN(Cc1ccccc1)Cc1ccc(F)cc1F | 3.48%
c1ccc(CN2CCN(Cc3nnc(-c4ccc5c(c4)OCO5)o3)CC2)cc1 | 3.5%
